The values below come from patent US20090166224A1.

The target of the assay is asialotransferrin (human) (UniProt P02787). Kind of assay: neuraminidase-treated serum on M-LAC column, displacer fraction, extracted ion chromatogram of peptide ….
Setting [1] is: transferrin peptide SEQ ID NO:3.
Where [2] appears, read: transferrin peptide SEQ ID NO:9.

Entries with a single value are a further part of the results.

Chain of UniProt P02787 (P02787 20-698 limits assumed): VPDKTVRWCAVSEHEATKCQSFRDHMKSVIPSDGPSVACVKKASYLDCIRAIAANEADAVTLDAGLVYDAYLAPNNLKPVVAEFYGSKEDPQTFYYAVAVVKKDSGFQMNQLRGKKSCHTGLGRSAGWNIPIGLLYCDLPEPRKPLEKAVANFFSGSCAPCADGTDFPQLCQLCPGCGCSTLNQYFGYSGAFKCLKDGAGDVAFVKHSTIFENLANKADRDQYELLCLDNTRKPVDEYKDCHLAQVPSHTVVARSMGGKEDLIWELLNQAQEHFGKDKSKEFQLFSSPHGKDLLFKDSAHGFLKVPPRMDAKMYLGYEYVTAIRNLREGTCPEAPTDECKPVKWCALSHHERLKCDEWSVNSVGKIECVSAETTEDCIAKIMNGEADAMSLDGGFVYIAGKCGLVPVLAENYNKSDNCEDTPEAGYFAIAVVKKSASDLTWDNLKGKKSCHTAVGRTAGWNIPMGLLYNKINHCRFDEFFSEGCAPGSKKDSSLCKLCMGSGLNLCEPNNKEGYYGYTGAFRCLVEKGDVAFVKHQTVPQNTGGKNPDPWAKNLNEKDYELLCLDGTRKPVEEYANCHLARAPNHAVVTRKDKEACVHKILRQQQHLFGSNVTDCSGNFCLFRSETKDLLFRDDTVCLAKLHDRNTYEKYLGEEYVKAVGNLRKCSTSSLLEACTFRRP

With “Concanavalin A (Con A), agarose-bound (from UniProt P02866 30-281)”, the peptide peak area in displacer fraction is, setting by setting: under setting [1], 3.5e+07 counts; under setting [2], 1.1e+07 counts.
For “wheat germ agglutinin (WGA), agarose-bound (from UniProt P10968 27-197)”, the peptide peak area in displacer fraction is, setting by setting: under setting [1], 1.6e+06 counts; under setting [2], 0 counts.
